These results are taken from a collection of fitness landscapes (doi:10.1016/j.celrep.2020.107928).

In all, about 81,000 sequences were measured (“one-hybrid fitness for binding parS DNA”: median about -0.17, highest 2% from about 0.51 on). This is one part of the list.

B1: Caulobacter ParB omega fusion; a variant is named by its letters at X, in order, B8GW30 (parent)
chain: MESVVVGEPGMSEGRRGLGRGLSALLGEVDAAPAQAPGEQLGGSREAPIEILQRNPDQPRRTFREEDLEDLSNSIREKGVLQPILVRPSPDTAGEYQIVAGERAWRAAQRAGLKTVPIMVRELDDLAVLEIGIIENVQRADLNVLEEALSYKVLMEKFERTQENIAQTIGKSXSHVANXMRLLXLPDEVQSYLVSGELTAXHARAIAAAADPVALAKQIIEGGLSVRETEALARKAPNLSAGKSKGGRPPRVKDTDTQALESDLSSVLGLDVSIDHRGSTGTLTITYATLEQLDDLCNRLTRGI

The variants in this assay derive from B1. As to the kind of experiment: one-hybrid fitness for binding parS DNA (scaled: cognate 1, non-cognate 0); higher = stronger binding. As to conditions: with parS DNA site. The method, boiled down: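 Caulobacter ParB libraries with four specificity codons randomised were screened by bacterial one-hybrid selection in the E. coli USO strain, using a HIS3 reporter whose site lies 19 bp from the promoter. Selection ran for 48 hours at 37°C on M9 lacking histidine, with 0.1 mM IPTG and 5 mM 3-AT. Plasmids were Illumina-sequenced before and after selection, three replicate libraries were pooled, and variants with under 10 reads were dropped. Fitness is the log change in each variant's read ratio to wild type, rescaled against the cognate and non-cognate sites.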
Turning to GLYS, the “one-hybrid fitness for binding parS DNA” value was not above 0.2.
The value for NHGV was not above 0.2; that for ESCC was not above 0.2.
Regarding CARR, the “one-hybrid fitness for binding parS DNA” value was not above 0.2.
Then EGER, with not above 0.2; and GNAC, with not above 0.2.
Turning to EDPF, the “one-hybrid fitness for binding parS DNA” value was not above 0.2.
Take ILYQ: the “one-hybrid fitness for binding parS DNA” value was not above 0.2.
As to DHTF, the “one-hybrid fitness for binding parS DNA” value is not above 0.2.
DCHN: the “one-hybrid fitness for binding parS DNA” value is not above 0.2.
Regarding VWGT, the “one-hybrid fitness for binding parS DNA” value was not above 0.2.
For the variant WCNS, the “one-hybrid fitness for binding parS DNA” value was not above 0.2.
Then IGKG, with not above 0.2; and KGDG, with not above 0.2.
Consider DHSC, for which the “one-hybrid fitness for binding parS DNA” value was not above 0.2.
The value for LDMT was not above 0.2; that for APPT was not above 0.2.
The value for TVHA was not above 0.2.
On to RCNR, for which the “one-hybrid fitness for binding parS DNA” value is not above 0.2.
Consider QKGM, for which the “one-hybrid fitness for binding parS DNA” value is not above 0.2.
Turning to DRVM, the “one-hybrid fitness for binding parS DNA” value was not above 0.2.
Consider SPSA, for which the “one-hybrid fitness for binding parS DNA” value is not above 0.2.
The value for INHA was not above 0.2; that for PQGC was not above 0.2; that for TTFH was not above 0.2.
Then PKMG, with not above 0.2; and HSRG, with not above 0.2; and LTRS, with not above 0.2.
On to CKRC, for which the “one-hybrid fitness for binding parS DNA” value is not above 0.2.
For the variant ETMR, the “one-hybrid fitness for binding parS DNA” value is not above 0.2.
The value for HWLC was not above 0.2.
Turning to DGKI, the “one-hybrid fitness for binding parS DNA” value was not above 0.2.
Consider PPTE, for which the “one-hybrid fitness for binding parS DNA” value is not above 0.2.
Take WWIG: the “one-hybrid fitness for binding parS DNA” value is not above 0.2.
With CSVS, the “one-hybrid fitness for binding parS DNA” value was not above 0.2.
Consider SIQW, for which the “one-hybrid fitness for binding parS DNA” value is not above 0.2.
PGYF: the “one-hybrid fitness for binding parS DNA” value is not above 0.2.
As for FATC, the “one-hybrid fitness for binding parS DNA” value was not above 0.2.
Take FRPM: the “one-hybrid fitness for binding parS DNA” value was not above 0.2.
Regarding DVNS, the “one-hybrid fitness for binding parS DNA” value was not above 0.2.
For the variant ANGS, the “one-hybrid fitness for binding parS DNA” value is not above 0.2.
The value for AVDY was not above 0.2; that for PGYD was not above 0.2.
In the case of TGEE, the “one-hybrid fitness for binding parS DNA” value was not above 0.2.
Turning to WVRR, the “one-hybrid fitness for binding parS DNA” value was not above 0.2.
In the case of GAGP, the “one-hybrid fitness for binding parS DNA” value was not above 0.2.
Then PRRT, with not above 0.2.
Then MGMC, with not above 0.2.
For QEVR, the “one-hybrid fitness for binding parS DNA” value is not above 0.2.
KDLI: the “one-hybrid fitness for binding parS DNA” value is not above 0.2.
Consider PIDY, for which the “one-hybrid fitness for binding parS DNA” value is not above 0.2.
Consider HPMC, for which the “one-hybrid fitness for binding parS DNA” value is not above 0.2.
Regarding RLLE, the “one-hybrid fitness for binding parS DNA” value was not above 0.2.
Then PMMG, with not above 0.2; and RVYD, with 0.216; and SIQQ, with not above 0.2.
Turning to PWEY, the “one-hybrid fitness for binding parS DNA” value was not above 0.2.
Regarding CIDV, the “one-hybrid fitness for binding parS DNA” value is not above 0.2.
As for PSPN, the “one-hybrid fitness for binding parS DNA” value was not above 0.2.
For KVVL, the “one-hybrid fitness for binding parS DNA” value is not above 0.2.
The value for QFLV was not above 0.2; that for HMRL was not above 0.2; that for RMVS was 1.04.
In the case of CLGG, the “one-hybrid fitness for binding parS DNA” value is not above 0.2.
The value for PCSA was not above 0.2; that for LALA was not above 0.2; that for DYVT was not above 0.2.
As to EHDR, the “one-hybrid fitness for binding parS DNA” value is not above 0.2.
As for RPVV, the “one-hybrid fitness for binding parS DNA” value is not above 0.2.
As to FTFC, the “one-hybrid fitness for binding parS DNA” value was not above 0.2.
Then SMQG, with not above 0.2; and ILWG, with not above 0.2; and QSPA, with not above 0.2.
PTPH: the “one-hybrid fitness for binding parS DNA” value was not above 0.2.
The value for NHRC was not above 0.2; that for MSDP was not above 0.2.
VDRV: the “one-hybrid fitness for binding parS DNA” value was not above 0.2.
For the variant TKMR, the “one-hybrid fitness for binding parS DNA” value is not above 0.2.
For the variant PQWL, the “one-hybrid fitness for binding parS DNA” value was not above 0.2.
Take QQTH: the “one-hybrid fitness for binding parS DNA” value is not above 0.2.
With EESS, the “one-hybrid fitness for binding parS DNA” value was not above 0.2.
As to YKWG, the “one-hybrid fitness for binding parS DNA” value is not above 0.2.
For the variant NKCC, the “one-hybrid fitness for binding parS DNA” value was not above 0.2.
The value for CLKV was not above 0.2; that for GLDF was not above 0.2; that for TVKM was not above 0.2.
For ECNT, the “one-hybrid fitness for binding parS DNA” value was not above 0.2.
Then NYSC, with not above 0.2; and KADR, with not above 0.2; and MLYT, with not above 0.2.
Take VVRR: the “one-hybrid fitness for binding parS DNA” value is not above 0.2.
Then NRPS, with not above 0.2; and CRTY, with not above 0.2; and TPMM, with not above 0.2.
Consider LACT, for which the “one-hybrid fitness for binding parS DNA” value was not above 0.2.
On to SRDF, for which the “one-hybrid fitness for binding parS DNA” value was not above 0.2.
As to VWCR, the “one-hybrid fitness for binding parS DNA” value is not above 0.2.
As for QWRA, the “one-hybrid fitness for binding parS DNA” value is not above 0.2.
Then FLAM, with not above 0.2; and CFQI, with not above 0.2; and IRWS, with not above 0.2.
Turning to AAHY, the “one-hybrid fitness for binding parS DNA” value was not above 0.2.
On to TSEK, for which the “one-hybrid fitness for binding parS DNA” value is not above 0.2.
Turning to WIIL, the “one-hybrid fitness for binding parS DNA” value is not above 0.2.
Regarding YLQI, the “one-hybrid fitness for binding parS DNA” value was not above 0.2.
Turning to RKMI, the “one-hybrid fitness for binding parS DNA” value was not above 0.2.
For the variant CDKV, the “one-hybrid fitness for binding parS DNA” value is not above 0.2.
For the variant SWWG, the “one-hybrid fitness for binding parS DNA” value was not above 0.2.
Regarding KNKG, the “one-hybrid fitness for binding parS DNA” value was not above 0.2.
Then CNHL, with not above 0.2.
The value for RHGP was not above 0.2.
Regarding INCT, the “one-hybrid fitness for binding parS DNA” value was not above 0.2.
As for YGMC, the “one-hybrid fitness for binding parS DNA” value was not above 0.2.
As for LSAT, the “one-hybrid fitness for binding parS DNA” value was not above 0.2.
With HTTL, the “one-hybrid fitness for binding parS DNA” value was not above 0.2.
Turning to QTRS, the “one-hybrid fitness for binding parS DNA” value is not above 0.2.
Consider KGML, for which the “one-hybrid fitness for binding parS DNA” value was not above 0.2.
Then GVEH, with not above 0.2; and RFDD, with not above 0.2.
SHPT: the “one-hybrid fitness for binding parS DNA” value is not above 0.2.
In the case of VYAC, the “one-hybrid fitness for binding parS DNA” value was not above 0.2.
For ITTL, the “one-hybrid fitness for binding parS DNA” value is not above 0.2.
With RLWS, the “one-hybrid fitness for binding parS DNA” value is 1.03.
In the case of CKWR, the “one-hybrid fitness for binding parS DNA” value is not above 0.2.
Then TEPD, with not above 0.2; and GALA, with not above 0.2; and PTKF, with not above 0.2.
In the case of PGIV, the “one-hybrid fitness for binding parS DNA” value is not above 0.2.
MVIS: the “one-hybrid fitness for binding parS DNA” value is not above 0.2.
On to PPPQ, for which the “one-hybrid fitness for binding parS DNA” value is not above 0.2.
Regarding AKCR, the “one-hybrid fitness for binding parS DNA” value was not above 0.2.
The value for GSLP was not above 0.2; that for QLMC was not above 0.2; that for VHYA was not above 0.2.
Regarding TQPG, the “one-hybrid fitness for binding parS DNA” value is not above 0.2.
The value for GFSC was not above 0.2; that for VEMC was not above 0.2.
As to LQLM, the “one-hybrid fitness for binding parS DNA” value was not above 0.2.
As for ANLT, the “one-hybrid fitness for binding parS DNA” value is not above 0.2.
Then MDMC, with 0.201.
Turning to SCNL, the “one-hybrid fitness for binding parS DNA” value was not above 0.2.
Then PHHH, with not above 0.2.
In the case of PRFA, the “one-hybrid fitness for binding parS DNA” value was not above 0.2.
Regarding NWTY, the “one-hybrid fitness for binding parS DNA” value was not above 0.2.
The value for CWPV was not above 0.2; that for TGTS was not above 0.2.
As for EWRR, the “one-hybrid fitness for binding parS DNA” value is not above 0.2.
Consider LQKN, for which the “one-hybrid fitness for binding parS DNA” value is not above 0.2.
For the variant DMKC, the “one-hybrid fitness for binding parS DNA” value was not above 0.2.
Consider YVRS, for which the “one-hybrid fitness for binding parS DNA” value is not above 0.2.
Regarding QAGH, the “one-hybrid fitness for binding parS DNA” value is not above 0.2.
In the case of RMTV, the “one-hybrid fitness for binding parS DNA” value was not above 0.2.
On to KLDS, for which the “one-hybrid fitness for binding parS DNA” value is not above 0.2.
